Test results taken from the supplement of paper PMC4604168 (melanoma cell lines).
The list shows a part of the results. Many values rest on one well or one pass, so single values are uncertain.

What follows are compounds tested on SkMel2 (assay: cell count relative to DMSO control; melanoma cells; higher = more viable cells). Settings: library dose: standard library concentration; 72 h.
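Note: cells treated in 1,536-well plates, then fixed and DAPI-stained, with nuclei counted from automated high-throughput microscope images.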

| SMILES | cell count [%] |
| --- | --- |
| NC(=O)c1ccc(N(C(N)=O)c2c(F)cccc2F)nc1-c1ccc(F)cc1F + CCCCCCCCCCCC1=C(O)C(=O)C=C(O)C1=O [Embelin] (first compound 2 µM, partner dose 6 µM) | 93.7 |
| CCCCCCCCc1ccc(CCC(N)(CO)CO)cc1 [fingolimod] + O=C(Nc1ccccc1)c1cc([N+](=O)[O-])ccc1Cl [GW9662] (first compound 10 µM, partner dose 10 µM) | 0.173 |
| NC(=O)c1ccc(N(C(N)=O)c2c(F)cccc2F)nc1-c1ccc(F)cc1F + Cn1cc(/C=C2\C(=O)Nc3cccnc32)c2ccccc21 [GW441756] (first compound 2 µM, partner dose 2 µM) | 89.9 |

What follows are compounds tested on SkMel30 in the same assay as above. Settings: library dose: standard library concentration; 72 h.

| SMILES | cell count [%] |
| --- | --- |
| NC(=O)c1ccc(N(C(N)=O)c2c(F)cccc2F)nc1-c1ccc(F)cc1F + O=C1NC(=O)/C(=C/c2ccc(-c3ccc(F)cc3O)o2)S1 [AS252424] (first compound 2 µM, partner dose 5 µM) | 94 |
| NC(=O)c1ccc(N(C(N)=O)c2c(F)cccc2F)nc1-c1ccc(F)cc1F + COc1ccc(COc2ccc(Cc3cnc(N)nc3N)cc2OC)cc1 [GW2580] (first compound 2 µM, partner dose 5 µM) | 112 |
| NC(=O)c1ccc(N(C(N)=O)c2c(F)cccc2F)nc1-c1ccc(F)cc1F + O=C(O)C(=O)Nc1sc2c(c1C(=O)O)CCNC2 [TCS401] (first compound 2 µM, partner dose 8.33333 µM) | 86.9 |
| CC(C)(C)c1cnc(CSc2cnc(NC(=O)C3CCNCC3)s2)o1 + CC(C)CCN1c2nc(Nc3cc(F)c(O)c(F)c3)ncc2N(C)C(=O)C1C [BID1870] (first compound 0.05 µM, partner dose 1 µM) | 74.2 |
| COc1cc2c(Oc3ccc4[nH]c(C)cc4c3F)ncnc2cc1OCCCN1CCCC1 [cediranib] + COc1ccc(-c2ccc3c(N4CCOCC4)nc(N4C[C@@H](C)O[C@@H](C)C4)nc3n2)cc1CO [KU0063794] (first compound 2 µM, partner dose 0.1 µM) | 63.9 |
| CCc1ccc(CCOc2ccc(CC3SC(=O)NC3=O)cc2)nc1 (stereo unspecified) [pioglitazone] + Cn1cc(/C=C2\C(=O)Nc3cccnc32)c2ccccc21 [GW441756] (first compound 10 µM, partner dose 2 µM) | 79.4 |
| NC(=O)c1ccc(N(C(N)=O)c2c(F)cccc2F)nc1-c1ccc(F)cc1F + O=c1cc(-c2cccc3c2Sc2ccccc2S3)oc(N2CCOCC2)c1 [KU55933] (first compound 2 µM, partner dose 5 µM) | 105 |
| CN(NC(=O)CC(=O)NN(C)C(=S)c1ccccc1)C(=S)c1ccccc1 + CCc1ccc(CCOc2ccc(CC3SC(=O)NC3=O)cc2)nc1 [pioglitazone] (first compound 0.03 µM, partner dose 10 µM) | 105 |
| NC(=O)c1ccc(N(C(N)=O)c2c(F)cccc2F)nc1-c1ccc(F)cc1F + c1cc(-c2cnn3cc(-c4ccc(OCCN5CCCCC5)cc4)cnc23)ccn1 [Dorsomorphin] (first compound 2 µM, partner dose 2 µM) | 95 |
| Cc1ccc(NC(=O)c2cccc(N(C)C)c2)cc1NC(=O)c1ccc(O)cc1 + COc1ccc(-c2ccc3c(N4CCOCC4)nc(N4C[C@@H](C)O[C@@H](C)C4)nc3n2)cc1CO [KU0063794] (first compound 10 µM, partner dose 0.1 µM) | 92.2 |
| NC(=O)c1ccc(N(C(N)=O)c2c(F)cccc2F)nc1-c1ccc(F)cc1F + CCN(CC)CCCCNc1ncc2cc(-c3cc(OC)cc(OC)c3)c(NC(=O)NC(C)(C)C)nc2n1 [PD173074] (first compound 2 µM, partner dose 0.5 µM) | 110 |
| CCCCCCCCc1ccc(CCC(N)(CO)CO)cc1 [fingolimod] + Oc1nc(-c2ccc(C(F)(F)F)cc2)nc2c1CSCC2 [XAV939] (first compound 10 µM, partner dose 10 µM) | 104 |
| NC(=O)c1ccc(N(C(N)=O)c2c(F)cccc2F)nc1-c1ccc(F)cc1F + COc1cc2ncnc(Nc3ccc(Oc4ccccc4)cc3)c2cc1OC [SrcI1] (first compound 2 µM, partner dose 10 µM) | 105 |
